About 540 (0.36%) of roughly 150,000 compounds showed an effect of 50% or more. The list shows a part of the results.
The compounds below were run on Plasmodium falciparum (assay: Primary screen in NF54 nanoGlo assay, in single point, at 2uM, 72h; a lower Z score goes with more inhibition). Conditions: timepoint 72 hour.
Format: functional, Erythrocyte
In the case of CN(Cc1ccc(-c2ccccc2)cc1)C(=O)c1cnc2c(cnn2C)c1O, the “% Inhibition” value is reported as -10% and the Z score is reported as 1.47. Cc1cc(CN2CCCC[C@@H]2Cn2nc(C)nc2C)on1 was tested, and the “% Inhibition” value was -12% and the Z score was 1.59. For CS(=O)(=O)N1CCC(NC(=O)c2occc2-c2ccccc2)CC1, the “% Inhibition” value was 6% and the Z score was -0.68. With CCOC(=O)c1nn[nH]c1[C@@H]1CCCN1C(=O)c1c(C)nsc1C the “% Inhibition” value was -12% and the Z score was 1.29. In the case of COc1ccc(C(=O)N2CC(C(=O)O)CCC2c2ccccc2)cc1 (stereo not drawn), the “% Inhibition” value is reported as 35% and the Z score is reported as -1.17. CC[C@@H](COc1ccccc1)NC(=O)CC1CCNCC1 was tested, and the “% Inhibition” value was 9% and the Z score was -1.66. With CC(C)NC(=O)Nc1ccc(N(C)C)c(CN(C(=O)c2ccccc2Cl)[C@@H](C)C(C)C)c1 the “% Inhibition” value was -7% and the Z score was 1.29. In the case of Cc1cc(C)cc(OCc2nnc(C(=O)Nc3cccc(C(=O)NC4CCCC4)c3)s2)c1, the “% Inhibition” value is reported as -21% and the Z score is reported as 2.13. CN1c2cc(Cl)ccc2C(=O)NC12CCN(C(=O)Nc1ccc(F)cc1F)CC2 was tested, and the “% Inhibition” value was -10% and the Z score was 1.28. For CCOC(=O)C1CCN(C(=O)c2snc3c(=O)n(C)c(=O)[nH]c23)CC1, the “% Inhibition” value was -8% and the Z score was 1.25. COc1ccc(-c2noc(Cn3c(=O)c4ccccc4n(CC(=O)Nc4cc(Cl)ccc4C)c3=O)n2)cc1 was tested, and the “% Inhibition” value was 31% and the Z score was -0.5. CCOc1ccc(NC(=O)CCc2nc(N3CCOCC3)c3c(C)noc3n2)cc1 was tested, and the “% Inhibition” value was -5% and the Z score was 0.81. For CC(C)[C@@H](C(=O)NCCCOCCc1ccccc1)N1CCCS1(=O)=O, the “% Inhibition” value was -8% and the Z score was 0.92. For O=C1CCCc2cc(C(=O)N[C@H]3CCOC34CCOCC4)ccc2N1, the “% Inhibition” value was -2% and the Z score was 0.29. For Cn1c(C(=O)N2CCNC(=O)[C@@H]2CCO)cc2cccc(Cl)c21, the “% Inhibition” value was -17% and the Z score was 2.87. With O=C(O)c1ccc2[nH]c3c(c2c1)CCC3 the “% Inhibition” value was 2% and the Z score was -0.25. For CCCOc1ccc(OCC(=O)NC2CCN(C(=O)c3ccc(OC)cc3OC)CC2)cc1, the “% Inhibition” value was -7% and the Z score was 0.93. For c1ccc(O[C@@H]2CCN(c3nnc(C4CC4)n3CC3CC3)C2)cc1, the “% Inhibition” value was -12% and the Z score was 2.38. In the case of Cc1nn(-c2nnn[nH]2)c(C)c1-c1cc(NCc2ccccn2)nc2[nH]ccc12, the “% Inhibition” value is reported as -2% and the Z score is reported as 0.38. O=C(Cc1ccccc1)N1CCc2nc(N3CCCCC3)nc(Oc3ccc(F)cc3)c2C1 was tested, and the “% Inhibition” value was -5% and the Z score was 0.52. In the case of COc1cc2c(cc1OC)[C@H](CCc1ccccc1)NCC2, the “% Inhibition” value is reported as -10% and the Z score is reported as 1.3. CC(CNC(=O)NC1CCOC1C)c1ccc(F)c(F)c1 (stereo not drawn) was tested, and the “% Inhibition” value was -8% and the Z score was 1.03. In the case of COCc1ccccc1C(=O)O[C@H]1CC[C@H](NC(=O)OC(C)(C)C)CC1, the “% Inhibition” value is reported as 2% and the Z score is reported as -0.26. For Cc1cc2ccccc2n1CC(=O)NOCc1ccccc1, the “% Inhibition” value was 6% and the Z score was -0.92. With Fc1ccc(-c2nc(C3CCCCC3)[nH]c2-c2ccc(F)cc2)cc1 the “% Inhibition” value was -9% and the Z score was 1. With O=C1NCC(=O)N2CCN(C(=O)c3ccc(Oc4ccccc4)o3)C[C@@H]12 the “% Inhibition” value was -24% and the Z score was 3.18. O=C(Nc1nncs1)N(Cc1cc(F)ccc1F)C1CCCC1 was tested, and the “% Inhibition” value was -9% and the Z score was 1.42. In the case of Cc1cc(C)n(-c2nc(Nc3ccc(Cl)cc3)nc(Nc3ccc(Cl)cc3)n2)n1, the “% Inhibition” value is reported as 44% and the Z score is reported as -7.01. With CN1C(=O)CN(C(=O)C2CC=CC2)c2ccccc21 the “% Inhibition” value was 3% and the Z score was -0.55. In the case of CCCn1nc(C2CCOCC2)nc1[C@H](O)C1CCCCC1, the “% Inhibition” value is reported as 6% and the Z score is reported as -0.83. COc1ccc(Cl)cc1N1CC[C@H](NC(=O)c2cc(C)n[nH]2)C1 was tested, and the “% Inhibition” value was -2% and the Z score was 0.27. CC1(C)CC[C@H](CCNC(=O)Cn2nnc3c2CCCC3)OC1 was tested, and the “% Inhibition” value was -8% and the Z score was 1.09. For CCn1cc(S(=O)(=O)N(C)C)cn1, the “% Inhibition” value was -4% and the Z score was 0.78. For Cc1n[nH]cc1NS(=O)(=O)c1c(C)nn(CC(C)C)c1C, the “% Inhibition” value was -4% and the Z score was 0.39. With O=C(CCc1c[nH]c2ccccc12)N1CCC2(CC1)C[C@@H](CCO)CCO2 the “% Inhibition” value was -5% and the Z score was 0.97. For COC(=O)CNc1ccc(OC)cc1C(=O)OC, the “% Inhibition” value was -40% and the Z score was 4.71. Cc1cc(NC(=O)c2cc(O)ncn2)[nH]n1 was tested, and the “% Inhibition” value was -3% and the Z score was 0.49. In the case of CCNc1ncc(CN2C[C@@H]3NC(=O)c4ncccc4OCCn4cc(nn4)CO[C@H]3C2)cn1, the “% Inhibition” value is reported as -27% and the Z score is reported as 3.4. For Cc1cc(CN(C)C[C@@H]2CC=CCC2)no1, the “% Inhibition” value was -10% and the Z score was 0.92. In the case of CCCc1nc(N2CCN(C)CC2)c2sc(=S)n(-c3ccccc3)c2n1, the “% Inhibition” value is reported as -6% and the Z score is reported as 1.23. In the case of CCc1noc(CC)c1CNc1ncnc2onc(C)c12, the “% Inhibition” value is reported as 1% and the Z score is reported as -0.08. In the case of CCCCN(C)CCNC(=O)N[C@H]1CCCC12CCOCC2, the “% Inhibition” value is reported as -8% and the Z score is reported as 0.75. For O=C1c2ccccc2[C@@H](Nc2ccc3c(c2)OCCO3)N1c1ccc(Cl)cc1, the “% Inhibition” value was -12% and the Z score was 1.84. With Cn1ncc2c(N)nc(N[C@H]3C[C@H](c4nnc(CO)n4C4CC4)C3)nc21 the “% Inhibition” value was 7% and the Z score was -0.76. In the case of CCn1nccc1C(=O)N1CCc2cc(F)cnc21, the “% Inhibition” value is reported as -7% and the Z score is reported as 1.27. For CCC(CC)C(=O)N1CCC(Nc2ncnc3c2cnn3C)CC1, the “% Inhibition” value was 6% and the Z score was -1.12. For CCc1ccc(CN(C)C(=O)[C@H]2CC(=O)N(C3CCCC3)C2)nc1, the “% Inhibition” value was -6% and the Z score was 0.89. In the case of CC1(C)NC(=O)N(Cc2ncnn2C2Cc3ccccc3C2)C1=O, the “% Inhibition” value is reported as -2% and the Z score is reported as 0.35. COc1cc(C)nc(NCCCc2nnc3ccccn23)n1 was tested, and the “% Inhibition” value was -23% and the Z score was 2.67. With CCN(CC)c1ccc(C(=O)N2CCC(Cc3nncn3C)CC2)cc1 the “% Inhibition” value was -3% and the Z score was 0.58. CCN=C(NCc1csc(N(C)C)n1)NCc1sccc1C was tested, and the “% Inhibition” value was 7% and the Z score was -0.56. For CC(=O)c1c(O)cc(C)n(C2CCCCC2)c1=O, the “% Inhibition” value was -7% and the Z score was 1.41. In the case of CCN(C(=O)CCCOc1ccccc1)c1ccccc1C, the “% Inhibition” value is reported as -14% and the Z score is reported as 1.88. With Cc1nn(C)c(N)c1C(=O)N(C1CCC1)C1CCC1 the “% Inhibition” value was 33% and the Z score was -4.79.

Source: ChEMBL document CHEMBL4888484, “Replenishing the malaria drug discovery pipeline: Screening and hit evaluation of the MMV Hit Generation Library 1 (HGL1) against asexual blood stage Plasmodium falciparum ,using a nano luciferase reporter read-out” (2022)
